Test results as given in publication PMC4336329 (PLoS ONE, 2015).
The whole screen tested about 310,000 compounds, of which about 14,000 (4.5%) showed an effect of 50% or more. The effect is printed as a negative number. The list shows a part of the results.

Each compound was assayed against human ether-à-go-go-related gene (hERG) potassium channel (human, UniProt Q12809) (assay: primary screen, population patch clamp on CHO cells stably expressing hERG).
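Also: peak tail current of the secondary pulse compared with the same well before compound.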

Sequence of human ether-à-go-go-related gene (hERG) potassium channel (Q12809 whole entry, looked up): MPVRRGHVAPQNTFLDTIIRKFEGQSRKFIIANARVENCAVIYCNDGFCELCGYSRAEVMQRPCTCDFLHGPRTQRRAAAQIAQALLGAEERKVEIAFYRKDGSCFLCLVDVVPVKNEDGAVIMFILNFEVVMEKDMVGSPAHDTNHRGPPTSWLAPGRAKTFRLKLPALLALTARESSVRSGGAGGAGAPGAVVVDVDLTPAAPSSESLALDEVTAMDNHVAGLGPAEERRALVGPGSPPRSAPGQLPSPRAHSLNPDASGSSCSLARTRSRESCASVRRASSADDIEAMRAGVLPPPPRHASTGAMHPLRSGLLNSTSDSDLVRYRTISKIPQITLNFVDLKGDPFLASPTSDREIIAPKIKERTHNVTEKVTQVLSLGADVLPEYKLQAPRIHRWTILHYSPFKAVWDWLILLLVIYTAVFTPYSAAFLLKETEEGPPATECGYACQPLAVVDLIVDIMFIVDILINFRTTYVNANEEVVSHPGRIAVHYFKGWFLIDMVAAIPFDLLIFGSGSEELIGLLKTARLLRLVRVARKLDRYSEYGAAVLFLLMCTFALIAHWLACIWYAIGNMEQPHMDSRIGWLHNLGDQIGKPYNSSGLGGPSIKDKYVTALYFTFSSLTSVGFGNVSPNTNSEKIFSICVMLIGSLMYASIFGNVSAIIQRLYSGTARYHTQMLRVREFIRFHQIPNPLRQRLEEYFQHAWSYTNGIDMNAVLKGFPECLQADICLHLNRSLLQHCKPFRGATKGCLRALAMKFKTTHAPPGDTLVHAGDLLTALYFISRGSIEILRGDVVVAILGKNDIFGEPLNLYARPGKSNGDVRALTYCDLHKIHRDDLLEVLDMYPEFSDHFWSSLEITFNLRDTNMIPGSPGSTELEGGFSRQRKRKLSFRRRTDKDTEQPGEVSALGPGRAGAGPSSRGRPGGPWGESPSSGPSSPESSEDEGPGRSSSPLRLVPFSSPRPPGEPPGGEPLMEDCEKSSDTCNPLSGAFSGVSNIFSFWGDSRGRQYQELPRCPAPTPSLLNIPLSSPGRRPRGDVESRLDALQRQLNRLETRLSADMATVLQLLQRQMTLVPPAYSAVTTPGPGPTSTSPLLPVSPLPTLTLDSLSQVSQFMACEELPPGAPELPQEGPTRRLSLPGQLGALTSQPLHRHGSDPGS

Structure (SMILES)	hERG current change (%, negative = inhibition) at 10uM [%]
N#CCCn1nc(-c2ccccc2)cc1-n1c(C(F)(F)F)nc2ccccc21	2.55
COC(=O)c1ccccc1NC(=O)Cn1cnc2c1c(=O)n(C)c(=O)n2C	-0.222
CCOC(=O)c1c(S(=O)(=O)NCCCc2ccco2)c(C)n(C)c1C	-5.65
O=C(NCC1COc2ccccc2O1)C1C2C=CC3(CN(Cc4cccs4)C(=O)C13)O2 (stereo not shown)	-31
C=C1C[C@H]2[C@@H]3CCc4cc(OC)ccc4[C@H]3CC[C@]12C	5.67
COc1ccc(-c2csc(-n3cccn3)n2)cc1	21.4
Cc1nc(SCC(=O)NC(=O)NCc2ccco2)nc(C)c1C	6.48
CCN(CC)C(=O)Cn1cc(C(=O)C(=O)NCCCn2ccnc2)c2ccccc21	27.8
COc1ccc(Br)cc1/C=N/n1c(-c2ccccc2)n[nH]c1=S	22.1
CCOC(=O)C1=C(COC(=O)COc2cccc(C)c2C)NC(=O)NC1C (stereo not shown)	-1.45
O=C(O)c1cccnc1SCc1cccc(Cl)c1	11.7
CC(C)(C)OC(=O)N1CCC[C@H]1C(=O)Nc1ccc(C#N)cc1	-10.3
Cc1ccc(C(=O)NCCNS(=O)(=O)c2ccccc2[N+](=O)[O-])cc1	12.2
Cc1c(C(=O)NCC2COc3ccccc3O2)oc2ccc(S(=O)(=O)N3CCOCC3)cc12 (stereo not shown)	-34.4
CCN(CC(=O)NC1CCS(=O)(=O)C1)C(=O)c1cc(OC)c(OC)c(OC)c1 (stereo not shown)	-1.08
CCN(C(C)=O)c1nc(CCl)cs1	9.14
CC(C)(C)NC(=O)COc1ccc(CNCc2ccccn2)cc1.Cl	1.82
Cc1ccc(Cc2nc3ccccc3[nH]2)cc1	7.94
Cc1cc(C(C)(C)C)ccc1OCCn1ccnc1.O=C(O)C(=O)O	-2.35
CCOC(=O)N1CCN(C(=O)CSc2nc(=O)n3cccc(C)c3n2)CC1	-27.5
Cc1cc(N2CCOCC2)nc2ccc(NC(=O)CCC(=O)N3CCN(c4cccc(C(F)(F)F)c4)CC3)cc12	-6.4
C/C(=C\c1ccccc1)CN1CCN(c2ccccc2)CC1	-3.31
N#CC1(NC(=O)CSc2nnc(-c3ccccc3F)o2)CCCCC1	-13.1
Cc1ccc(C2CC(=O)NC3=C2C(=O)CCC3)cc1Br (stereo not shown)	1.35
CN(CC(=O)Nc1ccccc1Cl)C(=O)c1ccc(COc2ccccc2)cc1	-12.9
COc1cc(NC(=O)c2cc(Cl)ccc2Cl)ccc1-c1cc2ccccc2oc1=O	-8.22
Cc1ccccc1Oc1cc(NC(=O)CCCn2nc(C)c([N+](=O)[O-])c2C)cc([N+](=O)[O-])c1	7.73
COc1ccccc1/C=N/OC(=O)c1ccc(F)cc1	-8.71

Structure (SMILES)	hERG current change (%, negative = inhibition) at 10uM [%]
CCOc1ccc(CCNC(=O)C2CCCN(c3nn4c(=O)cc(C)nc4s3)C2)cc1OCC (stereo not shown)	0.321
Cc1ccc(NC(=O)CCS(=O)(=O)c2cc3c(cc2Cl)NC(=O)CO3)cc1	-17.4
COc1cccc(-c2noc(C3CCCN(C(=O)c4ccccc4OC)C3)n2)c1 (stereo not shown)	-2.8
NC(=O)C1CCCc2c1n(Cc1ccccc1)c1ccccc21 (stereo not shown)	-14.7
O=C(CNC(=O)c1sc2ccccc2c1Cl)NCc1ccccc1	10.9
Cc1ccc(CNC(=O)c2cnc(-c3ccccn3)nc2C(F)(F)F)cc1	7.39
Cc1ccc(C(=O)CSc2nc(C)cc(SCc3nnc(-c4ccccc4)o3)n2)cc1	10.1
O=C(c1ccccc1)c1ccc(-c2ccc(O)cc2)cc1	10.1
CC(C)N(Cc1nc(-c2ccccc2)no1)C(=O)c1ccc2c(c1)OCO2	-17.4
Cn1c2ccccc2c2c(C(=O)N3CCN(c4ccccc4)CC3)cn(C3CCCC3)c(=O)c21	-14.5
CC(=O)NCCCc1nc2ccccc2n1Cc1cc(C)ccc1C	-14.5
O=C(Nc1cc2c(ccc3ccccc32)oc1=O)C1CCCCC1	-12
CCN(CC)c1ccc(Nc2nc(N3CCOCC3)c3ccccc3n2)cc1	-71.8
Cc1nc(/N=C(\N)NC(=O)c2ccccc2)nc2ccccc12	0.75
O=C1Nc2ccc(Br)cc2C1Cc1ccccc1F (stereo not shown)	-11.2
O=c1c2cc3ccccc3n2cnn1Cc1ccccc1F	-19
COc1ccc2ccc(OCC(=O)N3c4ccccc4NC(=O)CC3C)cc2c1 (stereo not shown)	-21.2
COc1ccc(C(=O)Nc2sc(C)c(C)c2CN2CCOCC2)cc1	18
Cc1cc(Cl)ccc1OCC(=O)NCC(=O)N/N=C/c1ccco1	11.9
O=C1CCN(S(=O)(=O)c2ccc(Cl)cc2)CC1	4.82
Cc1ccc(NC(=O)NCCN2CCCCC2)cc1C	-15.8
CCOc1ccccc1NC(=O)/C=C/c1ccccc1[N+](=O)[O-]	2.3
CC(C)CCC1(CCc2ccncc2)C(=O)NC(=O)NC1=O	-12.6
Cc1cccc(-n2c(O)c(/C=N/Nc3nc4c(c(=O)n(C)c(=O)n4C)n3C)c(=O)[nH]c2=S)c1	-1.58
O=C(Nc1ccn(Cc2c(F)c(F)c(F)c(F)c2F)n1)c1cccc(Cn2cc([N+](=O)[O-])cn2)c1	4.74
CCCN(CCC)CCNS(=O)(=O)c1ccc2c(c1)CCN2C(=O)C1CCC1	-20.6
O=C(C1CSC2(c3ccc(F)cc3)CCC(=O)N12)N1CCCCCC1 (stereo not shown)	-20.8
